From the supplement of paper PMC11417369 come the findings set out here.

± gives the standard deviation of the averaged measurements. Some of the results follow.

The test relates to PfAP2-EXP AP2 domain (GST-tagged). Put plainly: gcPBM binding intensity (ln(normalized median fluorescence intensity)); higher = stronger DNA binding. An outline of the steps:
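The highest Masliner-normalised natural-log median intensity across replicate spots of either probe orientation is reported as binding intensity. GST-tagged P. falciparum DNA-binding domains expressed in E. coli were applied for 1 h to an Agilent 4 × 180k array of primer-extended double-stranded 36-bp intergenic genomic probes plus negative controls, and bound protein was detected with Alexa488 anti-GST antibody and scanned at 488 nm.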
As to “TAATAATACCCAAGCACACACACACCCATATATATA [CACACA_site4831]”, the “gcPBM binding intensity (ln)” value turned out to be 8.85 ± 0.35.

“TTTAAATCGTTAAAAACACACAAAAAAAATCAATTA [CACACA_site2519]”: the “gcPBM binding intensity (ln)” value is 8.39 ± 0.42. As for “TACTGTGATAGCACCACACACGCAAAAGTGGGTATA [CACACA_site4749]”, the figure is 8.62 ± 0.4; as for “TCTATACCAGAAAAGGGTACATATTTTGGATTGAAC [XGTACX_site8402]”, 8.53 ± 0.36. As for “ATTATGCACCAACACACACACACACTCCTAAAAAAT [CACACA_site8822]”, the figure is 9.56 ± 0.61; as for “ATCACAAAATGGAATGTTCTATGATATATATGTATA [XGTACX_negctrl_site460]”, 8.27 ± 0.44; as for “TGTAAATATTTATTCACACATAATCAATTAGAAAAA [CACACA_site5944]”, 8.35 ± 0.56. For “AATACAGATAATACAACACACAAGTAATATAAACCT [CACACA_site5900]”, the “gcPBM binding intensity (ln)” value turned out to be 8.8 ± 0.42. As for “TATATATATTTTTATGCACACACAAAGAAAATTTTC [CACACA_site8931]”, the “gcPBM binding intensity (ln)” value is 8.75 ± 0.18. The same measure for “TACTTACTTACTTACTCACACACATATACAAAGAAA [CACACA_site3348]”: 8.85 ± 0.11; for “AAAAAAAAAAAAAACACACACACAATAGTATATAAA [CACACA_site957]”: 8.49 ± 0.45. As for “TTGTTACTGTTTTGGTGTACAAAAAAAAAAAATATA [XGTACX_site5762]”, the figure is 8.48 ± 0.31; as for “AATATATAAATCTATTGTACATAAAGAGGATAATAA [XGTACX_site1022]”, 8.78 ± 0.54; as for “TATAAATACAGATACACACACACACCGATATATATA [CACACA_site5271]”, 8.92 ± 0.48. As for “GATGATTATATATATACGCACACTTTTTTTTTTTTT [CACACA_site2652]”, the figure is 8.69 ± 0.45; as for “ATTAAAAACGGGTGTACACATATATAAATATATATA [CACACA_site4539]”, 8.88 ± 0.28; as for “AGTAGCATATTCTATTGTACATATATATATATATAT [XGTACX_site2980]”, 10.2 ± 0.56.

As for “TACAAAATAACTAGCACACATATGTATAAACCTATA [CACACA_site3718]”, the “gcPBM binding intensity (ln)” value turned out to be 8.69 ± 0.54. As for “TGTATAAAGATATATACACACATATTTATTTATATA [CACACA_site6493]”, the figure is 8.21 ± 0.39. “ATATGTATATATGTATGTACGTACAAATTGTTGTAA [XGTACX_site8832]”: the “gcPBM binding intensity (ln)” value turned out to be 9.21 ± 0.39. The same measure for “TTAATACATTAAATATGTACTTATATATCTCAACTA [XGTACX_site3997]”: 8.17 ± 0.26. The same measure for “ACCTGAAGAGTCAAACGTACAAATATTATAAAATGA [XGTACX_site3188]”: 8.55 ± 0.47. The same measure for “GTTATATTTTTTTTTTGTACATAATATTGTATTGAC [XGTACX_site6338]”: 8.93 ± 0.42.

For “TTTTTTTCTTTTCAAACACACAATTGGTATATATTA [CACACA_site3320]”, the “gcPBM binding intensity (ln)” value was 8.67 ± 0.48. The same measure for “CATAGGATTATACTTTTGGAATATTATTAAATATGT [XGTACX_negctrl_site75]”: 8.35 ± 0.3; for “TTTATTTTTTAATGTTGTACAATGTTGTTTAATCAA [XGTACX_site6489]”: 8.61 ± 0.42. The same measure for “TCATCCGTTTTAAGAAGTACATATTTGAACATATAA [XGTACX_site8040]”: 8.46 ± 0.56; for “ACATGTCAAACATTTGCACACAAAAAAATAAAAATT [CACACA_site691]”: 8.52 ± 0.38. In the case of “AAATAACACATATATACACACATATAACTATAATAT [CACACA_site7298]”, the “gcPBM binding intensity (ln)” value amounted to 8.62 ± 0.4. As for “TATATATATATGTGCACACATATATAATATGTATAA [CACACA_site715]”, the figure is 9.96 ± 0.14; as for “ATATATAAAATTATATGTACATATATAATATATATA [XGTACX_site529]”, 8.49 ± 0.085; as for “TATATACAAAAATGCACACGAAAAGTAATATATATA [CACACA_site4173]”, 9.21 ± 0.21. Turning to “TATATAAAAATCAATTGTACTTTTTTTTTTTTTTTT [XGTACX_site7327]”, the “gcPBM binding intensity (ln)” value was 8.52 ± 0.16. Turning to “TAGAACAAATAAAACACACACATATATATATATATG [CACACA_site2768]”, the “gcPBM binding intensity (ln)” value stood at 8.62 ± 0.47. As for “TTTAATATGTATTTTTTTTTTTTTTTTTTTTTTTTT [XGTACX_negctrl_site440]”, the figure is 9.06 ± 0.085. As to “TATAACAGGAATTATATATATATATATATATATTAT [CACACA_negctrl_site911]”, the “gcPBM binding intensity (ln)” value came out at 8.53 ± 0.092.

Regarding “CTTTTTTTAGTTAGGTGTACAATTTGTTATTATTAG [XGTACX_site1507]”, the “gcPBM binding intensity (ln)” value worked out at 8.85 ± 0.3. The same measure for “TTTTTTTTTTTTTTTTGTACATATTTCTTATAAGTG [XGTACX_site6459]”: 8.04 ± 0.32; for “TTTTTTTTTTTTTTTTTTTTTTGTGAAACTAAGTAA [CACACA_negctrl_site273]”: 7.96 ± 0.39; for “TTTTTTTTTTTTTTTTTGCAATATATTTTAAAAAAG [CACACA_negctrl_site25]”: 8.06 ± 0.48. On to “GGAAGAATATATAGGACACACATACAATAATAAATA [CACACA_site6124]”, for which the “gcPBM binding intensity (ln)” value worked out at 8.89 ± 0.57. The same measure for “AACTTCTTTTTTATAACACACAAAATATAAATACAA [CACACA_site4313]”: 8.61 ± 0.4; for “TTTTATATCTAGTTTATATTTCTTAAATAAATAAAT [GTGCAC_negctrl_site245]”: 8.04 ± 0.33; for “TAATACAAAAAGAAAAGTACATGTTAATTATTATTT [XGTACX_site2196]”: 8.6 ± 0.2. Regarding “CAAATTAAATATTATGCATGTACCAAACATCCTACC [TGCATGCA_site35]”, the “gcPBM binding intensity (ln)” value came out at 8.91 ± 0.33. As for “AACATATAAATGATATGTACACACATTTATATATAT [XGTACX_site7364]”, the figure is 8.73 ± 0.13; as for “AGCACAGACTAATAAACACACACATATATATATATA [CACACA_site8021]”, 10 ± 0.34. The same measure for “ATATATATATATATATGTACATATTTATTTATTTAT [XGTACX_site5161]”: 10.1 ± 0.41; for “CTCATTCTTTTTTGATGTACTTTTTTTTTTTAAGTT [XGTACX_site2875]”: 8.79 ± 0.24.

As for “TTTTATGGAAAGTGTTGTACATATTTTTGTATATGT [XGTACX_site7356]”, the “gcPBM binding intensity (ln)” value is 8.49 ± 0.19. As for “TTCAATTAAAAAATATGTACGCATAAATTGATATAT [XGTACX_site4289]”, the figure is 8.71 ± 0.33; as for “TTGTATAATTTAACAAGTACAAAATAAATTTGTATA [XGTACX_site5505]”, 8.19 ± 0.3; as for “AAAAGAGAAACATTTACACACAAATATAGATATATG [CACACA_site1027]”, 8.49 ± 0.4. The same measure for “ATAGTATACGGACACACACACACACCGATATATATA [CACACA_site5032]”: 8.88 ± 0.45; for “TTTTATTAATATTATTTATCTTCTCAAAAGATATAT [XGTACX_negctrl_site202]”: 8.3 ± 0.4. The same measure for “TATCTTATATTTACACGTACGTAGAATTTATAAGTT [XGTACX_site3460]”: 8.57 ± 0.35; for “CACACGTATAAATATACACACTAAAATACACGCACA [CACACA_site7876]”: 8.71 ± 0.28. With “TATTTATAACATTGTACACACAAAGAAATAATATTA [CACACA_site7422]”, the “gcPBM binding intensity (ln)” value turned out to be 8.53 ± 0.4.

With “ACGTATGTATATTACACACATACATATTATTCACTA [CACACA_site204]”, the “gcPBM binding intensity (ln)” value was found to be 8.54 ± 0.47. On to “ACATATATATACTATCGATTAATAAATTTGTTTTTT [CACACA_negctrl_site881]”, for which the “gcPBM binding intensity (ln)” value was determined as 8.82 ± 0.42. As for “ATAATATTTTATATAGTGCATTTGCTCATTATATAT [GTGCAC_site9528]”, the figure is 9.02 ± 0.36.

In the case of “CATATATAACATATAACACACATACTTAGTATTACA [CACACA_site5674]”, the “gcPBM binding intensity (ln)” value is 8.37 ± 0.46. As for “ATGATAAACATGGATACACACATATATATTACATAT [CACACA_site1576]”, the figure is 8.55 ± 0.33; as for “TGAGTATATATAAATACACACCAAATGTTAATATAT [CACACA_site5022]”, 8.31 ± 0.4; as for “AGGTTAATCGAAATTGCATGTGACGAAAAATCAAAA [TGCATGCA_site666]”, 8.87 ± 0.29. As for “CAAATACATGGACACACACACATATACAGATATATA [CACACA_site5854]”, the figure is 8.59 ± 0.45. As for “CAAACATGTTCAAATTGTACAATAGAAAATATATAT [XGTACX_site1557]”, the figure is 8.91 ± 0.54; as for “TTTTTTTTTTTTTTCTGTACTTAAAAAGGGGGAGAA [XGTACX_site3799]”, 8.96 ± 0.31. In the case of “TTGAAGTTTGATTGTAGTACGAATTGGTAGTTTTTT [XGTACX_site6854]”, the “gcPBM binding intensity (ln)” value was 8.37 ± 0.39. The same measure for “GATTATATATACAAAAGTACATTATAAAAATTTCAT [XGTACX_site4223]”: 8.29 ± 0.11. The same measure for “CCCTTAAAATATAAATGTACAAAATTATTTGTATGT [XGTACX_site6164]”: 8.7 ± 0.49; for “GTGAATATTAAAAAATGTACACAATTATATGTATAT [XGTACX_site4834]”: 8.49 ± 0.28; for “AGAAAAGAGAGAAAAACATGCACATGATATTATAAA [TGCATGCA_site120]”: 8.62 ± 0.53. The same measure for “TTCTTTTAATTACGAGTGCATACCATATGACATTAT [GTGCAC_site9819]”: 8.98 ± 0.3; for “ATAAACATCTAGTGCTGTACACAATTTGATTTTTTT [XGTACX_site3110]”: 8.47 ± 0.27. As to “TATATATATATACATACATGCATATATATATATATA [TGCATGCA_site513]”, the “gcPBM binding intensity (ln)” value is 10.2 ± 0.54.

With “TGTTATCAGAAAGCACGTACATATAATTATATATTC [XGTACX_site4188]”, the “gcPBM binding intensity (ln)” value turned out to be 8.85 ± 0.38.

“AATATATCTTATTTAACACACACAAAGAAAATAGAA [CACACA_site9242]”: the “gcPBM binding intensity (ln)” value worked out at 8.95 ± 0.34. As for “AATACAATAAAAAAAAGTACACATGTATAAAAAATT [XGTACX_site8270]”, the figure is 8.94 ± 0.38. As for “TAGAAAATCAGTTAAACACACACATAAAAAAAAAAA [CACACA_site8933]”, the figure is 8.65 ± 0.49. The same measure for “TATATAATATATATATGTACACATTTGCAAACAATG [XGTACX_site6941]”: 8.85 ± 0.21; for “TTCTTATTTGTACTAGTGCAATAGAAAATAAATAAA [GTGCAC_site9731]”: 8.71 ± 0.15. Consider “GAATATGTAAAGAAAGGTACACATGAAAATATGTGT [XGTACX_site446]”, for which the “gcPBM binding intensity (ln)” value turned out to be 8.55 ± 0.42. The same measure for “ATGAATTAATCTAATCGTACAATAAGCATTATTATA [XGTACX_site2571]”: 8.32 ± 0.28; for “TGTACCTACAAAATATGATATATTTTTATAAATTGT [XGTACX_negctrl_site498]”: 8.3 ± 0.26; for ACAATAAAGAACAGTATGCACTTTTATGCATGCGTA: 9.32 ± 0.17.

As for “ATAGTTAAAAAAAAAAAAAAAAAAAAAAGAGAGAGA [CACACA_negctrl_site1307]”, the “gcPBM binding intensity (ln)” value turned out to be 8.64 ± 0.64. The same measure for “AAATATACATACATATGTACATATATATATATATAT [XGTACX_site8202]”: 10.1 ± 0.45.
